Test results: publication PMC4336329 (PLoS ONE, 2015)
Screen size: about 310,000 compounds; about 2,200 (0.71%) showed an effect of 50% or more. Effects have a minus sign here. This is one part of the list.

target: human ether-à-go-go-related gene (hERG) potassium channel (human, UniProt Q12809); experiment: primary screen, population patch clamp on CHO cells stably expressing hERG
Sequence (Q12809 whole entry, looked up): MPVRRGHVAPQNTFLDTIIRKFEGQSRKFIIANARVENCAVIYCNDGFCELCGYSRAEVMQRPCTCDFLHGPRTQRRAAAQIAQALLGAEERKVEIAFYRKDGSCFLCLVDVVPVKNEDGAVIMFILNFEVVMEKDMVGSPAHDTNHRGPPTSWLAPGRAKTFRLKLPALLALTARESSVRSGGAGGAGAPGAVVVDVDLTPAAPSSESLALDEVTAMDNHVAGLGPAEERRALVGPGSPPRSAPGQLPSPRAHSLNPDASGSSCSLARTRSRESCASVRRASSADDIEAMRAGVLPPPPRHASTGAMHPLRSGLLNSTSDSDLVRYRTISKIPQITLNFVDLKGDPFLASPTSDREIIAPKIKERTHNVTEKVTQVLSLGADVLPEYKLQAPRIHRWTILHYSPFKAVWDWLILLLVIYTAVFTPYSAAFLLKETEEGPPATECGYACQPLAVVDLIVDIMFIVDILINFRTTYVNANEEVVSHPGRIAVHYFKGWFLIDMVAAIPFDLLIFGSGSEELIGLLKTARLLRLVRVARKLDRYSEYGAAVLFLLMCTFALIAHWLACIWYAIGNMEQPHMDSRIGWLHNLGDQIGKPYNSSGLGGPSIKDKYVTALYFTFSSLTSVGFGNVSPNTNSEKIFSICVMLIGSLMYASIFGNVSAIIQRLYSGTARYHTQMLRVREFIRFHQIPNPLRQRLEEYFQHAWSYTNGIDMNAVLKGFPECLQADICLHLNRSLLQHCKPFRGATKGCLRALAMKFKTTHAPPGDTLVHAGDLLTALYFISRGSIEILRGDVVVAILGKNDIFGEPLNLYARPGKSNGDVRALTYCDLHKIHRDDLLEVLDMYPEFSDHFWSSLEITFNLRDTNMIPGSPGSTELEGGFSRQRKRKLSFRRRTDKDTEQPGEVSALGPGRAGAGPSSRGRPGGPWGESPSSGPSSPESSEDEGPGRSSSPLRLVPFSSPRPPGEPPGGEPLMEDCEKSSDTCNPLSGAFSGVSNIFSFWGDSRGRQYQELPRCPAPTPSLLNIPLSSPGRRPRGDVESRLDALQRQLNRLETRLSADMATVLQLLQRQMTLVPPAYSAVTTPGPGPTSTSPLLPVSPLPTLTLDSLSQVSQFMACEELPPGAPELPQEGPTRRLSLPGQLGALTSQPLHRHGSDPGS

Row | SMILES | hERG current change (%, negative = inhibition) at 1uM [%]
1 | Cc1ccc(-c2nc3ncccn3c2Nc2ccc3c(c2)OCO3)o1 | -13.3
2 | C=C1CC2C(=O)N(Cc3cc(OC)ccc3OC)C(C(=O)OCC)(C(=O)OCC)C1N2C(=O)OC(C)(C)C (centres unmarked) | 10.1
3 | COc1ccc(OC)c(C2SCCN2S(C)(=O)=O)c1 (centres unmarked) | 6.18
4 | CC1CCCN(C(=O)C2CC(=O)N(c3ccc(Cl)cc3)C2)C1 (centres unmarked) | 8.18
5 | CC(=O)Nc1nn(C)c2nc3ccc(C)cc3cc12 | 13.1
6 | COc1ccc(S(=O)(=O)c2c(O)c3ccc(C(=O)Nc4ccccc4)cc3[nH]c2=O)cc1 | 14.4
7 | CCN(CC)C(c1ccc(F)cc1)c1nnnn1C1CCCCC1.Cl (centres unmarked) | -1.16
8 | Cc1cccc(-n2c(Cc3ccccc3)nnc2SCc2ccc([N+](=O)[O-])cc2)c1 | 4.5
9 | CC(C)=C1C2CCC1C(C(=O)NCCc1ccccc1)C2C(=O)O (centres unmarked) | 19.1
10 | COc1ccc(/C=C/C(=O)NCC(=O)N2CCC(N(C)CCN3CCOCC3)CC2)cc1OC | 3.33
11 | COc1ccccc1C(=O)NNC(=O)C1CCCO1 (centres unmarked) | 11.5
12 | Cn1c(N)c(C(=O)COC(=O)COc2ccc(Br)cc2)c(=O)n(C)c1=O | -2.99
13 | CC(=O)c1ccc(NS(=O)(=O)c2ccc(C)cc2)cc1 | 19.4
14 | COC(=O)c1ccc(COc2ccc(C)c(C)c2)o1 | 15.6
15 | CCOC(=O)c1sc2nc(C)nc(NC3CCC(O)CC3)c2c1C (centres unmarked) | 12
16 | c1coc(CNc2ncnc3sc4c(c23)CCCCC4)c1 | -16
17 | COc1cccc(-c2csc(N3CCN(C(=S)NCC(C)C)CC3)n2)c1 | 7.06
18 | N#CCCn1cc(C=C(C#N)C#N)c(-c2ccc(Cl)cc2)n1 | 2.36
19 | CCOc1ccc(NC(=O)CC2SC(=O)N(c3ccccc3)C2=O)cc1 (centres unmarked) | 16.5
20 | CN1C(=O)S/C(=C\c2ccccc2OCc2ccc(C(=O)O)cc2)C1=O | 4.87
21 | Cc1ccc(S(=O)(=O)N(C)c2ccc(C(=O)NCCc3ccccc3)cc2)cc1 | -1.11
22 | COc1cc(C(=O)N(Cc2ccco2)Cc2cc3ccccc3[nH]c2=O)cc(OC)c1OC | -13.8
23 | O=S(=O)(Nc1ncccn1)c1ccc(NS(=O)(=O)c2cc(Cl)ccc2Cl)cc1 | 16.1

Row | SMILES | hERG current change (%, negative = inhibition) at 1uM [%]
24 | O=C(CCCSc1nc2ccccc2[nH]1)NC1=NCCS1 | 0.776
25 | Cc1ccc2c(c1)/C(=N/OS(=O)(=O)c1ccccc1)CCS2 | 8.57
26 | O=C(c1cnc(-c2ccccc2)s1)c1ccc(Cl)cc1Cl | -9.62
27 | CC1(C)CC(=O)C2=C(C1)OC(N)=C(C#N)C21CCC2(CC1)OCCO2 | 13.9
28 | Cc1ccc(COc2ccsc2C(=O)NNC(N)=S)cc1 | 22.3
29 | O=C(c1cc2sccc2n1Cc1ccccc1)N1CCc2ccccc21 | 4.57
30 | COCCNC(=O)C(c1cccs1)N(C(=O)Cn1nnc2ccccc21)c1cccc(C(C)=O)c1 (centres unmarked) | 12.4
31 | CC(=O)N1CCc2c(sc(NC(=O)CS(=O)(=O)c3ccc(F)cc3)c2C#N)C1 | 12.5
32 | CC(C(=O)NCCS(=O)(=O)c1ccc(Cl)cc1)S(=O)(=O)c1ccccc1 (centres unmarked) | 6.53
33 | O=C(COc1cccc2ccccc12)NNC(=O)Nc1ccccc1 | 10.6
34 | CNC(=O)COc1ccc(S(=O)(=O)N2CCCC2)cc1 | 18.1
35 | Cn1c(=O)c2c(nc(CN3CCN(C(=O)c4ccco4)CC3)n2Cc2ccccc2F)n(C)c1=O | 0.716
36 | O=C(Nc1ccc2c(c1)OCCO2)C1CCC1 | 5.56
37 | COc1ccc(CNC(=O)Nc2ccc([N+](=O)[O-])cc2)cc1 | 9.43
38 | COc1ccc(S(=O)(=O)Cc2ccccc2)cc1N | -13.3
39 | COc1cccc(-c2nn(C)c3sc(C(=O)NCc4ccccn4)cc23)c1 | 12.7
40 | Cc1ccc(SCCC(=O)N/N=C/c2cccnc2)cc1 | 10.8
41 | COC(C[C@H](O)C[C@H](O)[C@@H](C)OCc1ccccc1)OC | 20.9
42 | O=c1o[nH]c(-c2ccccc2)c1C=Nc1ccc(Cl)cc1 | 1.88
43 | CCCCCn1c(NC(=O)c2ccco2)c(C(=O)OCC)c2nc3ccccc3nc21 | -73.9
44 | Cc1cn(C(=O)c2ccccc2)c(=S)n1-c1ccc(Cl)cc1 | -0.802
45 | COc1ccccc1CNC(=O)C1CC2Cn3c(nc4cc(Cl)c(Cl)cc43)C2N1C (centres unmarked) | -24
46 | COc1ccc(CCn2c(=S)[nH]c3cc(C(=O)N4CCOCC4)ccc3c2=O)cc1OC | 8.02

Row | SMILES | hERG current change (%, negative = inhibition) at 1uM [%]
47 | Cc1ccc(NC(=O)c2cc(S(=O)(=O)N3CCCC3)c[nH]2)c(C)c1 | -1.21
48 | O=c1oc(-c2ccccc2)nc2sc3c(c12)CCCC3 | 18.5
49 | CCC(C)[C@H](NC(=O)N1CC(=O)Nc2ccccc21)C(=O)N1CCC[C@@H]1C(=O)O (some centres unmarked) | 19.3
50 | COC(=O)c1ccc(-c2ccc(/C=N/N3C(=O)C4C5C=CC(C6CC56)C4C3=O)o2)cc1 (centres unmarked) | 3.68
51 | COCCNC(=O)c1ccc(CS(=O)(=O)c2cccc(C(F)(F)F)c2)o1 | 10.5
52 | c1ccc(-c2nnc3ccc(N4CCC5(CC4)OCCO5)nn23)cc1 | -14.2
53 | N#CC1=C(N)C(C#N)(C#N)[C@H](c2ccncc2)[C@H]2CC3(CC=C12)OCCO3 | 7.56
54 | O=C(NNC(=O)C1CC1c1ccccc1)Nc1ccccc1 (centres unmarked) | 5.96
55 | O=C(c1ccco1)N1CCN(S(=O)(=O)c2ccc(F)cc2)CC1 | 3.68
56 | Cc1ccc(-c2ccc(=O)n(CC(=O)Nc3cccc(C(=O)N4CCN(C)CC4)c3)n2)cc1 | -3.61
57 | COc1ccc(Br)cc1S(=O)(=O)n1ccnc1 | 14.9
58 | Cc1cccc(NC(=S)N/N=C/c2c[nH]c3ccccc23)c1 | 12.3
59 | NS(=O)(=O)c1cc(Cl)c(Cl)c(S(N)(=O)=O)c1 | 2.94
60 | COc1ccc(N2CCN(CC(=O)Nc3ccc(SC(F)F)cc3)CC2)cc1 | -35.8
61 | NC(=O)COC(=O)c1ccccc1Nc1ccc(SC(F)F)cc1 | 0.762
62 | Nc1cccc(S(=O)(=O)NC2=NCCC2)c1 | 13.4
63 | COc1ccc(OCc2cc(C(=O)N(C)Cc3cc(C)no3)no2)c(Cl)c1 | 27.2
64 | O=C(Cc1ccc(Cl)cc1)Nc1ccccc1N1CCOCC1 | 7.35
65 | COc1ccc2nc(NC(=O)CSc3cn[nH]n3)sc2c1 | 10.4
66 | COc1ccc(-n2c(-c3ccccc3)nc(=S)c3c2CCCC3)cc1 | 3.27
67 | Cc1nnc(SCC(=O)N2CCCCCC2)n(N)c1=O | 14.5
68 | CCCCN(CC)C(=O)C1CCC(CNS(=O)(=O)c2cccc3nsnc23)CC1 (centres unmarked) | 14.1
69 | CC1Cc2cc(S(=O)(=O)N3CCCCC3)ccc2N1C(=O)C1CCC1 (centres unmarked) | 12

Row | SMILES | hERG current change (%, negative = inhibition) at 1uM [%]
70 | COCCN1C=C2C(=O)C(C)(OC(=O)CCc3ccccc3)C(=O)C=C2C=C1c1ccc(C#N)cc1 (centres unmarked) | -23.7
71 | COC(=O)c1cn(NC(=O)/C=C/c2cc(OC)ccc2OC)c(=O)c2ccccc12 | 8.24
72 | O=C(c1cnc(N2CCN(c3ncccn3)CC2)c2ccccc12)N1CCN(c2ccccn2)CC1 | 0.591
73 | CCCCn1c(=O)c(C(=O)NCc2ccco2)c(O)c2ccccc21 | 11.7
74 | Cn1c(-c2cnn(-c3ccccc3)c2N)n[nH]c1=S | 7.5
75 | CCOC(=O)c1cc(CC)sc1NC(=O)CN1C(=O)C(=O)N(CC(C)C)C1=O | -0.515
76 | COn1c(=O)c(-c2ccc(Cl)cc2)[n+]([O-])c2ccccc21 | 7.2
77 | COc1ccc(C(=O)N(C)c2c(C)n(C)n(-c3ccccc3)c2=O)cc1OC | 15.8
78 | CCc1ccccc1N(CC(=O)NCc1ccco1)C(=O)CCC(=O)Nc1ccccn1 | 12.1
79 | Cc1nc(C(C)NC(=O)CCc2nnc(CCCc3ccccc3)o2)c(C)s1 (centres unmarked) | 7.83
80 | COc1ccc(Oc2c(O)c3ccccc3n(C)c2=O)cc1 | 9.63
81 | Cc1cc(NC(=O)C2CC(=O)N(c3ccccc3C)C2)no1 (centres unmarked) | 13.7
82 | CCOC(=O)Cc1csc(NC(=O)CSC2=NCCS2)n1 | 16.1
83 | CC(C(=O)O)N(c1ccccc1Cl)S(C)(=O)=O (centres unmarked) | -6.64
84 | O=C(Nc1ccccc1N1CCCCC1)c1cnccn1 | 7.8
85 | Cn1c(=O)c2c(ncn2CC(=O)N2CCN(S(=O)(=O)c3ccc(F)cc3)CC2)n(C)c1=O | 5.15
86 | CCOC(=O)C1CCCN(C(=O)c2ccc3c(c2)N(Cc2ccccc2)C(=O)c2ccccc2S3=O)C1 (centres unmarked) | 8.55
87 | CC12CNCC(C)(CNC1)C2O (centres unmarked) | 15.4
88 | COC(=O)CNC(=O)COC(=O)c1cc(F)c(F)cc1Cl | 11.1
89 | CCOC(=O)c1ccc(N2C(=O)CC(Sc3nc(O)c(CC)c(=O)[nH]3)C2=O)cc1 (centres unmarked) | 16.2
